In the supplement of paper PMC3334620:
The full ranking holds about 33,000 sequences; the median of “E-score (-0.5 to 0.5)” is about -0.054, and the highest 2% start at about 0.39. The list shows a part of the results.

Target: Ylr278c (UniProt Q05854)
Experiment: PBM E-score (8-mer binding enrichment) (E-score (-0.5 to 0.5)); higher = stronger / more preferred TF binding; most listed sequences are background and not binding sites
Conditions: protein concentration: 200 nM; construct: GST-DNA-binding domain
Outline: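 Using PURExpress in vitro transcription/translation, GST-tagged yeast transcription factors were made in full-length or DNA-binding-domain form. These were applied at about 100-200 nM to double-stranded universal all-10-mer Agilent arrays, and bound protein was detected with fluorescent anti-GST. Scans were normalised with masliner before the Universal PBM Analysis Suite assigned E-scores to ungapped eight-base words pooled with their reverse complements.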

Row | Sequence | PBM E-score
1 | GACTCTTA | -0.0113
2 | CCCTGAAC | 0.0392
3 | CTCTGAGA | -0.29
4 | ATGTCTTG | 0.117
5 | AAGCGAAG | -0.0624
6 | AGTGAATG | 0.155
7 | ACAATCAT | -0.042
8 | GCGCAAGA | 0.0388
9 | TACGATCA | -0.19
10 | CGTGTATA | -0.00214
11 | ATAGCGCA | -0.103
12 | AATCATCA | -0.153
13 | CATGGAAA | 0.0561
14 | ACAGCAGG | 0.0378
15 | GAGTGGGA | -0.0135
16 | CCCATTAA | -0.317
17 | CCACGCGG | 0.204
18 | GAAGCATA | -0.155
19 | GCTATTTA | -0.0413
20 | ATGACGGA | 0.279
21 | ACGCACTG | -0.0303
22 | AAAAGACA | 0.0411
23 | CTGTTTAC | -0.172
24 | ACTCTGCC | -0.253
25 | ACCGAGAA | 0.109

Row | Sequence | PBM E-score
26 | CTCCTAAC | -0.157
27 | AATTCATA | -0.14
28 | CCAGTTAA | -0.0482
29 | GTTATCCA | 0.0894
30 | CCATAGAC | -0.248
31 | GACCGTCC | 0.154
32 | AACACGTA | -0.019
33 | AACGTAGG | -0.206
34 | CCAAACAG | -0.257
35 | GAGTAGAC | -0.0763
36 | CAAAGCTC | 0.0257
37 | GAGCGCTA | -0.0438
38 | GCCAGGAA | -0.15
39 | AGTGACAT | -0.025
40 | AGATTCCT | -0.257
41 | GCCTATAC | -0.109
42 | CAAGTAAG | -0.235
43 | AAACGATT | 0.0105
44 | CAGCGAGG | -0.178
45 | GCATCTGA | -0.182
46 | CCATTTGC | 0.0398
47 | ACGAACCA | -0.125
48 | GGTCACGA | -0.143
49 | CGGCAGAA | 0.204
50 | TGGAACCA | -0.0348

Row | Sequence | PBM E-score
51 | CAAGGTGA | -0.17
52 | ATAACCGA | 0.0895
53 | GCAGTGCC | -0.17
54 | ATATGTCA | -0.0665
55 | TCACAAGA | -0.163
56 | ATGCGTAC | -0.0495
57 | GTTTGCGA | -0.0942
58 | CGCCGAAC | 0.315
59 | CGCAGCCA | -0.00269
60 | GAGTGAGA | 0.0798
61 | ATAGCCAT | -0.115
62 | AGTTGGGA | -0.192
63 | CTACCAGA | 0.0262
64 | ACGACACA | -0.274
65 | ATAGCTCG | -0.0396
66 | CTGATGAA | -0.33
67 | AACCTGTC | -0.114
68 | ATTCGACC | -0.155
69 | CGCGTTCC | 0.198
70 | TGTAATAA | -0.0936
71 | AATGAAGC | -0.148
72 | CCCTGTCC | -0.128
73 | GACTTGAC | -0.059
74 | CCGTCTTA | -0.0532
75 | GCGGCAAA | 0.238

Row | Sequence | PBM E-score
76 | AATCCCCC | 0.0792
77 | ATGTAATC | -0.125
78 | AATCGCTG | 0.0495
79 | CGAATGTA | 0.0699
80 | CAGCAAGA | -0.136
81 | CGCCATTA | -0.0002
82 | CTGCAAAC | -0.201
83 | CTCCTAAA | -0.229
84 | CAATATTA | 0.0196
85 | TAGGAAAA | -0.132
86 | ACCGCTTA | -0.109
87 | AAGCTCGG | 0.256
88 | AGAGATTG | -0.112
89 | AGAGCTGA | -0.229
90 | ATTGTTCC | 0.266
91 | AGGCGGAG | 0.39
92 | AGTCGGCA | 0.202
93 | GCGCAGCC | 0.0388
94 | TACCGAAA | 0.161
95 | TACACAGA | -0.219
96 | CCTTACAC | -0.0955
97 | AACAAGCG | 0.145
98 | ATGCTTAG | -0.155
99 | AAGAAGCT | -0.0842
100 | CTTAGCGA | -0.0726

Row | Sequence | PBM E-score
101 | GCGTTGCC | 0.0752
102 | GACCATTA | -0.00105
103 | ACTTACAC | -0.145
104 | AGCGCCTG | 0.0474
105 | CAATGTCG | 0.0163
106 | AATGAGTC | 0.0416
107 | GGACGCCA | -0.11
108 | GCCGACCA | 0.149
109 | CATAGGGG | -0.0405
110 | CGAGCCGC | 0.265
111 | ATCCTAAC | -0.0938
112 | AGGTAAGG | -0.249
113 | ACAAATGA | -0.193
114 | AGACTACT | -0.287
115 | GATAGGCA | -0.212
116 | CAAACTCC | 0.434
117 | TGAGCTAA | -0.116
118 | AGAGACAA | -0.1
119 | AACATGGT | -0.225
120 | GGAGCTAA | 0.24
121 | CGCGTGAA | 0.0864
122 | ATGGTCAG | -0.101
123 | GAACTGGA | 0.113
124 | TATGAAAA | -0.0683
125 | AGGATTAA | 0.0585

Row | Sequence | PBM E-score
126 | ATGATTTC | 0.124
127 | ATCCTGGA | -0.101
128 | GGTCCATA | -0.115
129 | GTGAAACA | -0.0739
130 | CCCCCAGG | -0.25
131 | CGTAAAAC | 0.0289
132 | CGACATTA | 0.132
133 | GTAGCCTA | -0.355
134 | GTAGCGAC | -0.186
135 | GCATTGAA | 0.0449
136 | AGCCAGAC | -0.0281
137 | GGCCTAGA | -0.071
138 | AGGTAGTC | -0.0355
139 | ACTCTGAC | -0.0061
140 | ACTCATCG | 0.0183
141 | GACAGGAC | -0.0707
142 | CGTGTCCC | -0.0085
143 | GGCCAGGA | -0.107
144 | CATCTTTC | -0.251
145 | ACACCCAT | -0.0358
146 | GCTAACGA | -0.0229
147 | AACTTACA | -0.122
148 | CATAAATG | -0.232
149 | AAATGTCC | 0.222
150 | AAATTCCC | 0.254

Row | Sequence | PBM E-score
151 | AATGGCGT | -0.0782
152 | GCGCTACA | 0.023
153 | GGGGGATA | -0.0821
154 | AAGTAAGA | -0.245
155 | AAGGCACG | 0.0867
156 | ATATAGAT | -0.0849
157 | GTCGTGTA | -0.171
158 | AACCCACG | -0.19
159 | AATCCACA | -0.0935
160 | CCGTCAAC | 0.117
161 | AGGTTGGG | -0.122
162 | CACCCCAG | -0.00942
163 | TCACCCCA | 0.00786
164 | AATATCCA | 0.0239
165 | AGTATGAC | 0.0596
166 | AAAATGTG | -0.0205
167 | CCGTGATA | 0.135
168 | GAGTGGAC | -0.0604
169 | GCGATGAC | 0.12
170 | ATAGCTGA | -0.185
171 | GATTTCCA | 0.079
172 | AAACCAGG | -0.121
